Our source for the binding signal (log2 normalized intensity) values is publication PMC10726135.

This is one part of the list. At the low end of the ranking the order means little. The protein was read in a cell extract, so binding may be indirect.

The target in this assay is T1, HNF4alpha2 (COS-7 nuclear extract) (UniProt P41235).
T1 sequence: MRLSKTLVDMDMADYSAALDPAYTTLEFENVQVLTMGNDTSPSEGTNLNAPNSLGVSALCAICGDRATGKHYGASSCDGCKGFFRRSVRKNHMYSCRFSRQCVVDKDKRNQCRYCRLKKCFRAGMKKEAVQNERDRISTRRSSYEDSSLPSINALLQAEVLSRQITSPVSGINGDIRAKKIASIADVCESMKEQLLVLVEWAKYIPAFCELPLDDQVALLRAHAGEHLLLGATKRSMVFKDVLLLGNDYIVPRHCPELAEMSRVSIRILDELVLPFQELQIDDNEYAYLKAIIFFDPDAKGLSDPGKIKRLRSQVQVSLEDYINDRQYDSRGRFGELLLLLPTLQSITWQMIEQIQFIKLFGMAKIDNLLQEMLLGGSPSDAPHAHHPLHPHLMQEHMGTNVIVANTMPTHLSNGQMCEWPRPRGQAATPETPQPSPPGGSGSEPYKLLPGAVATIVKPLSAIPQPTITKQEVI
Nature of the assay: protein-binding microarray. The settings on record: COS-7 nuclear extract on double-stranded Agilent 4x180k PBM; binding buffer, salt, pH and temperature not given; high values mean tight binding; double strand, one strand shown; sequences stand for … in …GCCTAGGGAGATTAGAGTATCGGTCGA
In the case of AAGTTATCTTGAGACCTCAAGGGGAGAGGA, the binding signal (log2 normalized intensity) was -1.11.
To TTTCCAGCAAATCCCAATTCACTGACACAA belongs -1.1.
On to ACATGAGGTAGAGGGACACTGATAACACTG, for which the binding signal (log2 normalized intensity) was -1.18.
On to CTCAACACTGGCTTCTCTGGCCTAGTAAGA, for which the binding signal (log2 normalized intensity) was -1.11.
Regarding TTAAGCCAAAGTCCAAGTTGGTGAGAACAG, the binding signal (log2 normalized intensity) came out at 2.66.
To AAGGACTGGACCACCTCCTCAAAGAGCAGA belongs -0.99; to TACCTGTGCAGATATTTAACCTTTGATCTG, 7.34; to TGCTTCCAGTTCCATAATCCCCGAATGTCC, 2.87.
To AGGGGCATTTGAGTACATGCCTCTCCCAGT belongs 0.552; to TTTGCAAATGACTTTGAGAGTAAGTTTCTG, -0.533.
Regarding CCCTCCCCCCACTCAAAATAGGAGTTAAGG, the binding signal (log2 normalized intensity) was found to be 2.45.
To GCAAACATTTCACTTTGCTCCCTCCTTCAG belongs 0.666; to CTGGCCCACTGTTCTCTCTAGAGAGAACAG, -1.14; to AACCTGCTGCAGGAGAGATGGTCAGATTTT, 0.577.
For CTGCCTTCCTGCTCATGCAGCTGCTGCCCA the value was -1.04; for TTTGCCTGGTGATCTTTGTTAGACCCTTAT, 2.48; for AGACACTTTGGCTCCAGAGTCCACATTCTT, 2.45.
As to CATGATTGTAGCCAAACTCACAGCTTTTAT, the binding signal (log2 normalized intensity) was -0.939.
Consider CGTTGGTGCTCCCCCACCCTGTGTCAGCAT, for which the binding signal (log2 normalized intensity) was determined as 3.93.
For GGGCATTCTGGAGTTTGGAACCAAATCAGC, the binding signal (log2 normalized intensity) amounted to 1.92.
For the sequence TCAGATGCAGTCCAGAAGGTCAGGACCACA, the binding signal (log2 normalized intensity) came out at 0.404.
As to GACTTGAGAAGACATAGTTTTTGCCCTTAA, the binding signal (log2 normalized intensity) came out at 2.29.
For CTAGCTGTGTAACCCTGGACAAGTTATCTT the value was 0.776; for GGCTGCATTCCCAGATGGTTAGGTATTTTA, 0.231.
Consider GGGAAGAGAGTATGGGATGATCAGTAAGGA, for which the binding signal (log2 normalized intensity) was -0.994.
In the case of CACCCCCATCTATGCACTCTCACCTTGGGG, the binding signal (log2 normalized intensity) was determined as 0.591.
Consider ATGGGGGAAGGGCTGGAGACGCAGGAGATG, for which the binding signal (log2 normalized intensity) was -1.12.
With TGTGTGTGTGTGGTGTGTGTGTGTGTGTTT, the binding signal (log2 normalized intensity) came out at 3.51.
Consider ACATTTGCGCAAACATAAAGGCAAAGGTCA, for which the binding signal (log2 normalized intensity) turned out to be 4.79.
For the sequence ACTTTCAACAAGGTGGAGACCTCTGCAGGA, the binding signal (log2 normalized intensity) came to 0.192.
For AGGTCTCTGCATACCAGGTAAGTGACATGC the value was -0.382; for GGAAATGGATTGCCTCCTAAGGCCTCCAGA, -1.21; for ATCTGGGCCAAGGCAGATATACCAGATAAG, -1.11.
Consider ACCAGTGGACCATGAGAAACATCCACATGT, for which the binding signal (log2 normalized intensity) is -1.06.
Regarding TCTGTCTTTGATCTGCTATCTCAGATAGCT, the binding signal (log2 normalized intensity) was -1.32.
As to TTCCATTAACTGAACCTAGATTCCAGGAAG, the binding signal (log2 normalized intensity) was -0.614.
In the case of CAGCGGCCGGAAAAAGTGAGGAGCAGCAGA, the binding signal (log2 normalized intensity) is -1.06.
As for CGGACGGGCTGCGGAGGCGACTGCAGATTG, the binding signal (log2 normalized intensity) is -1.2.
For TTCTCCGGGTTCTGCGCAGGGAGGAGCGCA the value was -0.994; for ACTGGAATAAAGCAGTCCCTACTTCAAAGG, -1.17; for GTGCAAGGGAATGTAAGGCACTTTATCTAG, -1.09.
Turning to TTCAGCAAATACTAATTCTCCCCCACCTGT, the binding signal (log2 normalized intensity) was 4.53.
CTGGGATCCAAAGTTCATGGAAAGTTTCAC: the binding signal (log2 normalized intensity) turned out to be 2.56.
Consider AGCAGTCCCTTCCCCCCTCCTCATTGAGAG, for which the binding signal (log2 normalized intensity) is 4.37.
As to CAGAGATCAAAAACCAAAGCTGGAGTGCAG, the binding signal (log2 normalized intensity) was -0.83.
To CCAAGGTGCTAGCTCCGACTCAGTGGGGGG belongs -1.14.
With GTGGCCTGTGCCTGTAGTCCCAGCGACTTG, the binding signal (log2 normalized intensity) was -1.1.
Turning to CACATTGTAGCTAAAATGTTAATGATTACT, the binding signal (log2 normalized intensity) was -1.02.
To TCCTGTTCAACTATTCCTCGACCTTCGGCT belongs 2.73; to CCTCGGTGGAGTTGACACAGACCTGCCTCT, -1.13; to AATATAGGCCAGGCATACCTTTCTTATCAT, -0.327.
Turning to TCTTATCTAGGTAAGTATAGTGGGAGGAGA, the binding signal (log2 normalized intensity) is 1.16.
Consider GGCTGCGACCTGCTGGGCTGCATTCCCAGA, for which the binding signal (log2 normalized intensity) is -1.13.
TTCACACCATGCTCTAGTCTTCCTGTCTCC: the binding signal (log2 normalized intensity) was -0.199.
For the sequence CCATTATCTCCTTAGGTACTTTTCTGTTTG, the binding signal (log2 normalized intensity) amounted to 2.02.
For ATTTTTATCTGTTTATTTTGCAATTAACAA the value was 0.164; for CAGTATTTGGTGAGGCCCCAGTGTCAATTC, 1.49.
Turning to AAGATTGTTGAATACTTGGAGACAGTGAGA, the binding signal (log2 normalized intensity) turned out to be 0.359.
Consider TAAGGGTGTTTGTCCTTTGTTGCAATGCTG, for which the binding signal (log2 normalized intensity) came out at 1.28.
Turning to CCCCAATACACACACACCCCTCCACTGGAC, the binding signal (log2 normalized intensity) was found to be 3.64.
Regarding TTATCTAGACAAATTTGTTTACTTCTGTCT, the binding signal (log2 normalized intensity) amounted to 0.69.
As for CTCAGATGCCAGCTAAGATCAGTAGCTAGG, the binding signal (log2 normalized intensity) is -1.07.
Take AAAACATATTTGCATAATGGAGCAAAGGTC: the binding signal (log2 normalized intensity) turned out to be 5.4.
Turning to TGGTGTGGACAGCAGACAACTTTTCCTCTA, the binding signal (log2 normalized intensity) was -1.14.
Turning to AGTCCAAAGCTCAGATTGCCTAAAGGGGAT, the binding signal (log2 normalized intensity) is -1.14.
To CATCTTTGAGCTGGATGACCTTTGTCCTGG belongs 8.57; to ACAGAAGAAGGAAAAGGCCTGACCTTTGCC, 4.61.
Turning to ACGCAGTCCCGCGTGGCCTTGTGGGAGCTG, the binding signal (log2 normalized intensity) was -1.09.
As for AGTGGCTTTGTTGATAACAAGTAAAATGAG, the binding signal (log2 normalized intensity) turned out to be 0.396.
Regarding ATGGTTAGCACTCTGGACTCTGAATCCAGC, the binding signal (log2 normalized intensity) stood at 2.69.
For the sequence TGTGTCTTTATAACAGACTGTAGGCTTGGA, the binding signal (log2 normalized intensity) stood at 1.72.
For ACTCCATCCTCACTTTAGGTGCTCTTGGCT, the binding signal (log2 normalized intensity) is 0.327.
